# Results as given in the supplement of paper PMC4466236.
# Over roughly 33,000 sequences, “E-score (dimensionless, -0.5 to 0.5)” has its median near -0.058; the highest 2% begin near 0.35. This is one part of the list.
# Tested on: MvaT
# Assay: PBM 8-mer E-score (mean of HK and ME arrays) (E-score (dimensionless, -0.5 to 0.5)); higher = stronger relative binding preference; most listed sequences are background and not binding sites
# Method: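 Protein binding microarray: GST-tagged full-length MvaT (P. aeruginosa PAO1) bound to two universal double-stranded 60-mer arrays (ME and HK), each with a constant 25-mer primer and a variable 35-mer region covering all 8-mers. The 8-mer E-score (rank-based, range -0.5 to 0.5, >0.45 = specific binding) is the mean of the two arrays.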
row,Sequence,PBM 8-mer E-score
1,TATAAGGA,0.348
2,TAAGTAGA,0.144
3,CACCTAAG,-0.143
4,CCTTGCAC,-0.0729
5,CTGAGCAA,-0.0891
6,AGCCGAAG,-0.229
7,GAACGTTC,-0.117
8,GAGCGTAC,-0.233
9,ATTGCCAC,0.081
10,AGCGATTA,0.0596
11,CTGAAAAG,-0.0791
12,ATCCATGA,0.0414
13,CAGGACCA,-0.182
14,CCGTGGCC,-0.215
15,CGAGCACG,-0.196
16,AGCGAGAT,0.0328
17,ATCGCTTC,-0.175
18,CTTAAGGC,0.00496
19,GCAAACCA,0.108
20,CGTAGTTC,0.0905
21,GGTTAAAC,0.0681
22,GCCGAGGC,-0.172
23,ATTTGGGC,0.0219
24,CTGGAGCC,-0.272
25,AATGGGGT,0.0941

row,Sequence,PBM 8-mer E-score
1,ATCCTAGG,-0.276
2,CCTACAGA,-0.133
3,ACCCCGGT,-0.235
4,ACCAAAAA,0.0989
5,AACCAAAC,0.14
6,AGCACACC,-0.166
7,ATTTAGGC,0.055
8,CAGATCTC,-0.152
9,AGGCTCCC,-0.268
10,TCCAACCA,-0.105
11,ATCTAGGG,-0.083
12,ATCGTGCC,-0.0241
13,GACGTCTC,-0.201
14,GAGTGAAA,0.0201
15,ATCGTGGA,0.0796
16,GAAGCGAC,-0.14
17,AAGCCTAT,0.18
18,CGAGGATA,0.00306
19,AAAGGCGT,-0.004
20,AACCAAGG,-0.22
21,GCCTCAAA,-0.0856
22,GGTTATAA,0.344
23,CAACCACG,-0.102
24,CTGCAGGC,-0.293
25,GCTAAACA,0.0857

row,Sequence,PBM 8-mer E-score
1,CTATGCCA,-0.137
2,CGTGAAAG,0.0362
3,ACTGCCCA,-0.105
4,ACCAGCTA,-0.124
5,ATTATCCC,0.253
6,ATGCGCAA,0.0132
7,AGATGATC,-0.0255
8,GTCTGCGA,-0.147
9,AGTCGTCG,-0.147
10,TGCAAGCA,-0.189
11,CGTCATTC,-0.075
12,CTAAGTGC,0.0641
13,CCATAGGG,-0.258
14,CATGCTCA,-0.224
15,AGCCTTCG,-0.32
16,CATGCCTC,-0.216
17,GCCGCGTA,-0.0692
18,AGTAGGCC,-0.153
19,AACTGGTC,-0.0685
20,AGAGGGTG,-0.2
21,GTAGCTAA,-0.0172
22,CAGGCAGA,-0.162
23,CTAGCGGC,-0.171
24,GCAGATGC,-0.166
25,AATGCTTG,0.0598

row,Sequence,PBM 8-mer E-score
1,TTGCTAAA,0.202
2,GTCCGCCA,-0.235
3,ACATTGTA,0.162
4,AAGCCAAT,0.0091
5,CACAGGCG,-0.296
6,TAACAAAA,0.318
7,TCGTTGCA,-0.0504
8,GGCCACAC,-0.183
9,ACTGGTAA,0.149
10,CATTTCAG,0.0682
11,GCCGCAGA,-0.284
12,GCTCGCCA,-0.107
13,AAACGTGA,-0.0478
14,AGCAGTTG,-0.00134
15,GCTCCCAA,-0.14
16,TGCACCAA,0.0426
17,TATGTTCA,0.186
18,AGGCTGCC,-0.298
19,CATACACC,0.06
20,AACGTTGA,0.0809
21,AACACACG,-0.0166
22,CGATTGTA,0.0896
23,ATTGCCTC,-0.021
24,CAAGGGTA,-0.108
25,CGGAGAGC,-0.215

row,Sequence,PBM 8-mer E-score
1,AGCTAAAT,0.0519
2,GAAAACTA,0.159
3,ATATGGCC,-0.0872
4,CTCGATTA,0.203
5,CGGGCGTC,-0.294
6,GCAAGGCA,-0.0943
7,AGAGTTGC,0.00592
8,GGAAACAC,0.0664
9,ACGTGGCT,-0.164
10,CGTCTTTC,-0.136
11,ACTTTCTG,0.158
12,CGACGAAC,0.00938
13,CGCTTATA,0.263
14,GCAGTAGA,-0.125
15,AAGCAAAG,-0.0179
16,AGATGCCC,-0.176
17,CTGTGTCA,-0.0988
18,CCTATTAC,0.151
19,CGCGATCA,-0.248
20,CACCTCTG,-0.112
21,ACGACCCT,-0.204
22,AGGTGGTA,-0.0312
23,CTCTCCAC,-0.153
24,ACGTTTCT,-0.0736
25,GCGAATGA,0.0883

row,Sequence,PBM 8-mer E-score
1,AATCCAAC,0.101
2,AAGGCTCG,-0.297
3,CCCTTCGG,-0.401
4,ACCGCGGC,-0.257
5,CAACCTGC,-0.136
6,ACTACCGC,-0.0317
7,AGACTCCC,-0.295
8,TGCCTCAA,-0.0684
9,CACTCCAC,-0.152
10,ATCTAGGC,-0.161
11,TCACGAAA,-0.0349
12,ACGCTTCG,-0.121
13,CGCCGGCC,-0.216
14,AGACTCCT,-0.131
15,ATAATCAA,0.333
16,CCATCCGA,-0.19
17,ATTTGACA,0.218
18,TATGATAA,0.336
19,AAACGCAT,0.0996
20,TCGGGAAA,-0.0403
21,GTCTAATA,0.269
22,CTAAGGGC,-0.264
23,GCAATTTA,0.307
24,AGAGTGCC,-0.173
25,CGGCGGAG,-0.236

row,Sequence,PBM 8-mer E-score
1,CTCGACGA,-0.231
2,CCTGCTCG,-0.298
3,CTCAGGGA,-0.168
4,GCCAATCC,-0.28
5,GATCGCTA,-0.103
6,GCACTGGA,-0.132
7,AAAGTAGA,0.036
8,ATGCGGCA,0.0233
9,GCAGGGGC,-0.265
10,AGAAACCG,-0.127
11,GTCTGATA,0.15
12,TATTGGAA,0.178
13,ACTTTACA,0.233
14,AGGCTCGG,-0.25
15,ATTGCCGG,-0.116
16,CAGCGCAC,-0.172
17,CGCTCTAC,-0.145
18,CGGATAAA,0.143
19,CCCGACTA,-0.0289
20,GGAGCAAA,-0.231
21,CGGGGCGC,-0.199
22,ACGGCGGG,-0.1
23,AACAGGCC,-0.106
24,ATGTAATG,0.205
25,CCAAACCC,-0.142

row,Sequence,PBM 8-mer E-score
1,CAAGCCTC,-0.192
2,TTCAGAAA,0.0688
3,AGTACTTG,0.295
4,CGAATATA,0.355
5,CGATCAGA,-0.155
6,ACCTCAAT,0.0554
7,TAATTGGA,0.291
8,AAGTTTCG,0.265
9,AAGTGATA,0.186
10,CGACCGCC,-0.236
11,TAAAATCA,0.198
12,CACGGAGA,0.0353
13,AACATGTT,0.295
14,CGGGCACA,-0.0933
15,GCCGATAA,0.182
16,CTCCAGGA,0.0255
17,AACTTACC,0.28
18,GACTAAAA,0.25
19,ACGTATAG,0.122
20,CTAACAAC,-0.0297
21,GTTTCCAA,0.128
22,AGTCCCTA,-0.216
23,GGGTCAAA,-0.132
24,ATGCGCAG,-0.0689
25,ATAGGATA,0.14

row,Sequence,PBM 8-mer E-score
1,AAGGTTGT,0.0331
2,CCCGCACA,-0.129
3,AACCTGGG,-0.274
4,GCAAAGTA,0.207
5,TCCCCACA,-0.239
6,TTAACTAA,0.313
7,GCTTTGCC,-0.22
8,AGCGGCGA,-0.132
9,AGTCAATA,0.151
10,ACGGATCA,-0.0355
11,CCGGTATA,0.0421
12,AAATTCTA,0.226
13,GCTTCCAA,-0.152
14,CCTTACCC,-0.248
15,GCGCAGGA,-0.227
16,CTTCTATA,0.168
17,CATACGAG,-0.0518
18,AATACCCT,-0.0322
19,AAAAGCCC,-0.218
